The source of these data is ChEMBL document CHEMBL4888484, “Replenishing the malaria drug discovery pipeline: Screening and hit evaluation of the MMV Hit Generation Library 1 (HGL1) against asexual blood stage Plasmodium falciparum ,using a nano luciferase reporter read-out” (2022).

What is called % Inhibition is the relative decrease from the control value, in per cent.

This experiment relates to Plasmodium falciparum. Description: Primary screen in NF54 nanoGlo assay, in single point, at 2uM, 72h; a lower Z score goes with more inhibition. The note with it: timepoint 72 hour. Format: functional, Erythrocyte.

SMILES strings stand for the structures. In all, about 150,000 compounds went through this assay and about 540 (0.36%) showed an effect of 50% or more. The list shows a part of the results.

On to `c1ccc2c(c1)CC(Oc1nnc(C3CC3)s1)C2`, for which the “% Inhibition” value is given as -9% and the Z score turned out to be 1.71.

On to `Cc1cnc(CNc2ccc(Cl)cn2)o1`, for which the “% Inhibition” value is -13% and the Z score is on record as 1.33.

As for `CN(C(=O)NC1CCOCC1)[C@@H](c1ccccc1)c1ccccn1`, the “% Inhibition” value was -11% and the Z score is on record as 1.1.

With `COc1ccc(CN(C)CC(=O)Nc2ccc(OCc3ccccc3)cc2)c(OC)c1`, the “% Inhibition” value is reported as 4% and the Z score is -0.85.

On to `COc1ccc(CCN[C@@H](C)Cn2cnc(C)c2C)cc1OC`, for which the “% Inhibition” value is recorded as -9% and the Z score is on record as 1.08.

Turning to `CC1=C[C@@H](CNCc2cccnc2)[C@H](C(C)C)C[C@H]1Cc1nc2cccnc2[nH]1`, the “% Inhibition” value was determined as 43% and the Z score was -1.69.

Take `O=C(Nc1cccc(Cl)c1F)N1CC(F)(F)C[C@H]1CN1CCCCCC1`: the “% Inhibition” value is listed as -16% and the Z score came out at 2.73.

As for `CCn1ccnc1CN(C)C(=O)c1cc(C)oc1C`, the “% Inhibition” value is on record as -15% and the Z score is 1.84.

Regarding `Cc1ccc(-c2[nH]c([C@H]3CC(=O)N(C4CCCC4)C3)nc2C)s1`, the “% Inhibition” value was -16% and the Z score is reported as 2.35.

Take `O=C(CC1CCCC1)Nc1ccccc1C(=O)N1CCCCC1`: the “% Inhibition” value was -6% and the Z score came to 1.12.

For `CCC(=O)Nc1ccc(Cl)c(NCc2ccn(C)c(=O)c2)c1`, the “% Inhibition” value was determined as 0% and the Z score is -0.06.

As for `Cc1cc(C(=O)Nc2nc(C(=O)N[C@@H](C)c3ccccc3)co2)no1`, the “% Inhibition” value worked out at 9% and the Z score is listed as -1.24.

For `CC(C)(C)c1nnc(NCCc2nccs2)s1`, the “% Inhibition” value is -4% and the Z score amounted to 0.82.

For the compound `CC1CCC2C(CCCN2C(=O)COc2ccc(CC(N)=O)cc2)C1` (stereo unspecified), the “% Inhibition” value is recorded as -19% and the Z score is 2.97.

In the case of `O=C(N[C@@H](Cc1ccccc1)C(=O)N1CCC2(CC1)NCCc1[nH]cnc12)c1ccco1`, the “% Inhibition” value is given as -11% and the Z score was 2.13.

In the case of `COc1ccc(-n2cc([C@H](C)Nc3nccc(C)n3)cn2)cc1`, the “% Inhibition” value is recorded as -6% and the Z score was found to be 1.01.

Regarding `CC(C)[C@@H]1CN(Cc2c(C(=O)O)oc3ccccc23)CCCO1`, the “% Inhibition” value is on record as -5% and the Z score came out at 0.77.

For `C#CCCC1(CCC(=O)Nc2cccc3c2CCNC3=O)N=N1`, the “% Inhibition” value is -13% and the Z score is 1.61.

As for `O=S(=O)(c1ccc2c(c1)CCO2)N1CC[C@H](Oc2ncccn2)C1`, the “% Inhibition” value is -19% and the Z score is on record as 2.96.

For `Fc1ccc(-c2cnc3nn[nH]c3c2)c2ncccc12`, the “% Inhibition” value was -9% and the Z score stood at 1.81.

For the compound `COC(CNC(=O)OC(C)(C)C)C(=O)Nc1cccc(C(=O)N2CCCC(CO)C2)c1` (stereo unspecified), the “% Inhibition” value is -11% and the Z score is given as 1.32.

Take `COc1cccc(CNCC(=O)N2CCC(Cc3ccccc3)CC2)c1`: the “% Inhibition” value is given as -3% and the Z score was found to be 0.53.

With `CC(C)c1ccc(CS(=O)(=O)NC(=O)CCc2cccnc2)cc1`, the “% Inhibition” value turned out to be 1% and the Z score was -0.08.

As for `CCc1cn(CC2CCC3(CC2)OCCO3)ccc1=O`, the “% Inhibition” value is recorded as -9% and the Z score was 1.01.

As to `COC1CCC(C(=O)N2CC[C@H]3[C@H](CCC(=O)N3CC(C)C)C2)CC1` (stereo partly specified), the “% Inhibition” value was -3% and the Z score is reported as 0.41.

With `Cn1cnc(C(=O)N2CCC[C@H](CCCc3ccccc3)C2)c1`, the “% Inhibition” value is reported as -10% and the Z score stood at 1.15.

Turning to `COc1cccc(CN(Cc2cccc(F)c2)CC2(C)COC2)n1`, the “% Inhibition” value is listed as -7% and the Z score is 0.96.

Turning to `CS(=O)(=O)NCc1cccc(C(F)(F)F)c1`, the “% Inhibition” value is recorded as 18% and the Z score is recorded as -2.3.

With `C[C@H](NS(=O)(=O)CC1CCCCC1)c1cc2ccccc2o1`, the “% Inhibition” value is listed as -9% and the Z score was 0.94.

Regarding `Cc1nc2ccc(N(C)Cc3csc(-c4ncccn4)n3)cc2s1`, the “% Inhibition” value is on record as -9% and the Z score was 1.17.

Regarding `CNC(=O)[C@H](CC(C)C)NCC(C)c1ccc(OC)cc1` (stereo partly specified), the “% Inhibition” value is on record as -4% and the Z score is 0.77.

Consider `CC(C)[C@H](NC1CCC2(CC1)OCCO2)c1nc(C2CC2)no1`, for which the “% Inhibition” value is reported as 8% and the Z score was -0.83.

With `N#Cc1ccc(CNc2[nH]ncc2C#N)cc1`, the “% Inhibition” value is on record as -13% and the Z score amounted to 2.09.

For `CNCC(=O)N1CCOC(c2ccc(Br)cc2)C1C` (stereo unspecified), the “% Inhibition” value turned out to be 4% and the Z score is reported as -0.45.

As to `CCCCN(CC)C(=O)c1cccc(NS(=O)(=O)CCC)c1`, the “% Inhibition” value is recorded as -4% and the Z score was 0.56.

`CC(C)CCN(CCC(C)C)C(=O)CN(C)C1CCCC1S(C)(=O)=O` (stereo unspecified): the “% Inhibition” value was -5% and the Z score turned out to be 0.82.

In the case of `O=S(=O)(c1c(Cl)ccc2nsnc12)N1CCN(Cc2cccs2)CC1`, the “% Inhibition” value was -11% and the Z score amounted to 1.16.

For `OCC1CCN([C@H]2CCCN(Cc3ccc(-n4cccn4)cc3)C2)CC1`, the “% Inhibition” value was -1% and the Z score came out at 0.2.

Turning to `NC(=O)[C@H]1CC[C@H](CN2CC(c3ccccc3)(c3ccccc3)CCC2=O)CC1`, the “% Inhibition” value was -6% and the Z score is 0.77.

`O=C(c1ccccc1F)N1CCS(=O)(=O)CC1`: the “% Inhibition” value is listed as -4% and the Z score was found to be 0.59.

Regarding `Cc1ccc(-c2noc(-c3cccnc3NCc3ccccn3)n2)cc1`, the “% Inhibition” value is -6% and the Z score worked out at 0.87.

With `O=C(Cn1nnc2ccccc21)N1CC(N2C(=O)CNC2=O)C1`, the “% Inhibition” value is reported as -2% and the Z score stood at 0.38.

As to `CCC(Cc1ccc(F)cc1)NC(=O)N[C@H]1CCO[C@@H]1c1cn(C)nc1C` (stereo partly specified), the “% Inhibition” value is recorded as -13% and the Z score is on record as 1.37.
